B1: ENSG00000105438:stop:overlap|stop_codon|ENSG00000105438|stop_codon|NA|stop_codon (ssRNA)
RNA: GGGAGUUCUACAGUCCGACGAUCAUUUCUUCUACCUCUAUAUCACCAAAGUCCUAAAGGGGAAGAAGUUGAGUUUGCCGGCAUAGCCCCGGUCCUCUCCAUCUCUCUCCUCGGCAGCAGCGGGAGGCAGAGGAAGGCGGCAGACAACAGAGGAUUGAGCAUCA
B2: ENSG00000136451:be:win_651|CDS|ENSG00000136451|bound_else_gene|NA|bound_elsewhere_windowed (ssRNA)
RNA: GGGAGUUCUACAGUCCGACGAUCGACUUACCAUGUGAGGUCUCAUGAAGGAGGCAUCACCAAACCCUAUACUUGCAGUGUUUGUGGGAAAGGCUUCUCAAGGCCUGACCACUUAAGCUGUCAUGUAAAACAUGUCCAUUCAACCAACAGAGGAUUGAGCAUCA
B3: chr20:45898604:45898705:+|3pUTR|ENSG00000064601|unk|total|mutant (ssRNA)
RNA: GGGAGUUCUACAGUCCGACGAUCAGAGCCCUGUACAUCCCAGACUGGGCCCAGGGUCUCCCACCGACAGCCUGGGGGCAAGUCCGCACUUUAUUCCCGCAGCAGUUCCUGAAUGGGGUGGCCUGGCCCCUUCUCUGCUUAAAGCAACAGAGGAUUGAGCAUCA
B4: chr1:162599429:162599460:+|3pUTR|ENSG00000117143|msi1_unk|total|mutant (ssRNA)
RNA: GGGAGUUCUACAGUCCGACGAUCGGUAUUUGAACCAGAUACCAAGUUUUGUUUGCCACGACCGGAACCGCUUUUAUUUUUGACCGACCAACUGUGAACCUACAAGACGUCUUGGACAACUGAAGUUUAAAUAUCCACAGGGUUCAACAGAGGAUUGAGCAUCA
B5: chr12:55956948:55957671:-|CDS|ENSG00000185664|control|control|control (ssRNA)
RNA: GGGAGUUCUACAGUCCGACGAUCGUGCUUUCUGGAACCACAGCUGCACAGGUAACAACUACAGAGUGGGUGGAGACCACAGCUAGAGAGCUACCUAUCCCUGAGCCUGAAGGUCCAGAUGCCAGCUCAAUCAUGUCUACGGAACAACAGAGGAUUGAGCAUCA
B6: ENSG00000165916:stop:overlap|stop_codon|ENSG00000165916|stop_codon|NA|stop_codon (ssRNA)
RNA: GGGAGUUCUACAGUCCGACGAUCACAUGGAAGGCAUCCUGGAGGUGCAGGCCAAGAAGAAAGCCAACCUACAAUACUACGCCUAGGGCACACAGGCCAGCCCCAGUCUCACGGCUGAAGUGCGCAAUAAAAGAUGGUUUAGGGCAACAGAGGAUUGAGCAUCA
B7: ENSG00000070961:be:win_2851|CDS|ENSG00000070961|bound_else_gene|NA|bound_elsewhere_windowed (ssRNA)
RNA: GGGAGUUCUACAGUCCGACGAUCGAAAAGUUUUUUGACAUUGAUAGUGGAAGAAAUGCUCCUUUGCAUGCUCCUCCUUCAGAACAUUAUACUAUUGUUUUUAAUACCUUUGUGCUGAUGCAACUUUUCAACGAAAUAAAUGCCCAACAGAGGAUUGAGCAUCA
B8: ENSG00000107863:be:win_2601|CDS|ENSG00000107863|bound_else_gene|NA|bound_elsewhere_windowed (ssRNA)
RNA: GGGAGUUCUACAGUCCGACGAUCCCUGGAUGCUCAGCCCAACUCAAAGACAGAAAGAUCAAAAUCAUAUGAUGAGGGUCUGGAUGAUUACAGAGAAGAUGCAAAAUUGUCCUUUAAGCACGUAUCUAGUCUGAAGGGAAUCAACAACAGAGGAUUGAGCAUCA
B9: chr13:77097425:77097526:-|CDS|ENSG00000005810|msi1|FALSE|unique (ssRNA)
RNA: GGGAGUUCUACAGUCCGACGAUCAGAAAAGGCAGAAGUUAGGCCCAGGGGUAAUUUGUUUGGAGAGAUGGCCCAGCUGGCAGUAGGAGGACCAGAGAAAGAUACCAUCUGUGAACUGUGUGGGGAGUCACAUCCAUACCCGGUCAACAGAGGAUUGAGCAUCA
B10: chr13:20975083:20975184:-|CDS|ENSG00000150457|msi1|total|mutant (ssRNA)
RNA: GGGAGUUCUACAGUCCGACGAUCGCCAGCCCCCUACGUUCCCACCAUCAGCCACCCCAUGGACACCUCGAAUUUCGACCCCGCCGAUGAAGAAAGCCCUUGGAACGAUGCCAGCGAAGGCCGCACCAAGGCCUGGGACACACUCAACAGAGGAUUGAGCAUCA
B11: chr6:57184343:57184440:+|3pUTR|ENSG00000112208|msi1_unk|FALSE|overlapping (ssRNA)
RNA: GGGAGUUCUACAGUCCGACGAUCUCUUCAGUUUUGUGAAUAACAAAACUAGCAAUAUUUUAAUUAUCUAUCUAGAGAUUUUUUAGAUUGAAUUCUUGUCUUGUACUAGGAUCUAGCAUAUUUCACUAUUCUGUGGAUGAAUACCAACAGAGGAUUGAGCAUCA
B12: chrX:53532849:53532950:-|3pUTR|ENSG00000086758|unk|total|mutant (ssRNA)
RNA: GGGAGUUCUACAGUCCGACGAUCGUGCUCCUCAGAUUCUGUGUUCAGAAGGAUUUGCUGCAUUGAGACUUGAAACCUUUGGACCGGGGAAAAAAUUAUAUAUAUAUAUAUUUUUUUGUUCUGUUUGCAUUUCUUAAUUUGUGCCAACAGAGGAUUGAGCAUCA
B13: chr8:17644361:17644462:-|3pUTR|ENSG00000129422|msi1|total|mutant (ssRNA)
RNA: GGGAGUUCUACAGUCCGACGAUCCAACAUUGUGAUGUCAGUAUUUACUAAUCUACAUUCAGUGGCUGUACAAAUAACAGCUGCCGUAAGAAGAGAUUCAGGAUGCCCGAGGUGAAUAUUUGGGUCAUUUACAUGUACACUACACAACAGAGGAUUGAGCAUCA
B14: chr12:10908389:10909298:-|CDS|ENSG00000212128|control|control|control (ssRNA)
RNA: GGGAGUUCUACAGUCCGACGAUCCAUGCUUUGUGAGACGAUUGGAGUCUUCUCUCCUUCAAGCCACUCCUUUCUUCUGAUUCUAGGAAACGCUAAGUUAAGACAGGCCUUUCUUUUGGUGGCAGCUAAGGUAUGGGCUAAACGCAACAGAGGAUUGAGCAUCA
B15: chr7:101206146:101206247:-|3pUTR|ENSG00000106397|msi1|total|mutant (ssRNA)
RNA: GGGAGUUCUACAGUCCGACGAUCCUUUGUCGACCCCUGACACUCAACCACUCUGCCAAACCUGCCCUGCCAUUGUGCCUUUUCCGGGGGCCUGGCCCCCGUCCUGGGAGUUGGGGGAUGGGUCUCUCUGUCUCCCCACUUCCUCAACAGAGGAUUGAGCAUCA
B16: chr14:100883974:100884119:-|CDS|ENSG00000254656|unk|FALSE|unique (ssRNA)
RNA: GGGAGUUCUACAGUCCGACGAUCGUUCUAUAACGACCGUCUGAGAGUUGGCUAUGUCAUCAAUCACCUGUCCGGCUUGGCAUUAGAAUGGGCCAAAGCUCUACUGCAGGAAAACAGCCCCCUGAUCGGAGACUUCCCAGCCUUCAACAGAGGAUUGAGCAUCA
B17: chr1:37566712:37566813:+|3pUTR|ENSG00000163879|unk|FALSE|unique (ssRNA)
RNA: GGGAGUUCUACAGUCCGACGAUCGCUUUAUUUCCCUAGCACUGGUGAAGGGCUUCAACUGUCAAACCUCAGAACAAAUGCAUUAGGGCCUUAGAAAUGUCAAUGGGGCAGGAAGAAAACACAAUUUCUAACUGCCUGUUUUUGCAACAGAGGAUUGAGCAUCA
B18: chr14:53043751:53043854:-|3pUTR|ENSG00000100523|unk|FALSE|unique (ssRNA)
RNA: GGGAGUUCUACAGUCCGACGAUCACUUAGAUUAAAUCUUGCUUUAUUUUUACUUUAAAAUUAGUCUUGCUAAGGCCUUAUGUUAGUUCAUACUUUCUUUUCAACAGUAAUCUUGUUUAUAAUCCAGUGUUUCUGUGUUUUAGGCAACAGAGGAUUGAGCAUCA
B19: ENSG00000151025:stop:overlap|stop_codon|ENSG00000151025|stop_codon|NA|stop_codon (ssRNA)
RNA: GGGAGUUCUACAGUCCGACGAUCUAAGUGCAAAUAAGAUAGCAGGGCCUAGGAAAGAAGAGAUCUGGGAUAGUUUUAAAGUGUAGCAUCUCCAGGAAGAAGAGGAAAAGGAGGGAACCCCGGAUUGGAUAUGAGACAGAAGAUCAACAGAGGAUUGAGCAUCA
B20: chr11:56417260:56418232:-|CDS|ENSG00000279961|control|control|control (ssRNA)
RNA: GGGAGUUCUACAGUCCGACGAUCGACAAGAUGGCUUCUGUAUUUUACACAGUGGUGAUCCCCAUGUUAAACCCCCUAAUCUAUAGUCUAAGGAACAAAGAAGUGAAAGAUGCCUCAAAGAAAGCCUUGGAUAAAGGUUGUGAACAACAGAGGAUUGAGCAUCA
B21: chr17:61865808:61865921:-|3pUTR|ENSG00000108506|unk|total|mutant (ssRNA)
RNA: GGGAGUUCUACAGUCCGACGAUCUUCUAUGAGAAUGAGUUUGCCGCUGUUUCAAAUCAUGAAGUGCACCGUAUCACAUGUGACCGAAUAUUUAUAACUUUUUAUCCGAUGCUUAAUGUUCAAUUAAGUAAUUUUGAUGUGAAACAACAGAGGAUUGAGCAUCA
B22: ENSG00000136451:be:win_601|CDS|ENSG00000136451|bound_else_gene|NA|bound_elsewhere_windowed (ssRNA)
RNA: GGGAGUUCUACAGUCCGACGAUCCCCUUUGAGUGUCCUAUUUGUAAUCAGCGCUUCAAGAGGAAGGACCGGAUGACUUACCAUGUGAGGUCUCAUGAAGGAGGCAUCACCAAACCCUAUACUUGCAGUGUUUGUGGGAAAGGCCAACAGAGGAUUGAGCAUCA

This is one part of the list.

The assay concerns the target MSI1 full-length (mouse, UniProt Q61474 1-362). Kind of assay: nsRBNS (natural sequence RNA bind-n-seq); RBNS binding buffer (assumed for nsRBNS): 25 mM Tris pH 7.5, 150 mM KCl, 3 mM MgCl2, 0.01% Triton X-100, 500 ug/ml BSA, 20 U/ml SUPERase-In, 4 C; UNK is unkempt and MSI1 is Musashi-1; names of the RNAs are library labels; protein concentration not given here; high values mean tight binding.
Sequence of UniProt Q61474 (Q61474 whole entry): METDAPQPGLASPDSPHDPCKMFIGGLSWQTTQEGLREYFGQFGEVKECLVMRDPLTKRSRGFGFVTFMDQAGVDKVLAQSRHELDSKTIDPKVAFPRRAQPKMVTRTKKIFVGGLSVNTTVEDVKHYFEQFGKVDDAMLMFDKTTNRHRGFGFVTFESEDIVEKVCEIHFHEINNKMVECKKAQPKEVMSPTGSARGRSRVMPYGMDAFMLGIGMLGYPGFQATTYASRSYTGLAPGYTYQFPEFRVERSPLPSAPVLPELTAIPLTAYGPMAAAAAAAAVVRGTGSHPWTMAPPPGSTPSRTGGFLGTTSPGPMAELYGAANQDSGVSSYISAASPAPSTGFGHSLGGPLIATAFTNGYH
For the molecule B1, the binding signal worked out at 0.841 enrichment R.

For B2, the binding signal is 0.26 enrichment R.

B3 gave a binding signal of 0.516 enrichment R.

Consider B4, for which the binding signal came out at 0.254 enrichment R.

In turn, B5 had a binding signal of 0.483 enrichment R.

B6 returned a binding signal of 4.13 enrichment R.

The molecule B7 yielded a binding signal of 0.334 enrichment R.

In the case of B8, the binding signal came out at 0.45 enrichment R.

As for B9, the binding signal was 1.15 enrichment R.

Molecule B10 gave a binding signal of 0.769 enrichment R.

The molecule B11 displayed a binding signal of 4.43 enrichment R.

Molecule B12 registered a binding signal of 0.425 enrichment R.

Turning to B13, the binding signal worked out at 0.21 enrichment R.

Turning to B14, the binding signal worked out at 0.436 enrichment R.

Take B15: the binding signal worked out at 0.469 enrichment R.

The molecule B16 registered a binding signal of 0.365 enrichment R.

For B17, the binding signal was 0.39 enrichment R.

Turning to B18, the binding signal was 14.6 enrichment R.

Molecule B19 registered a binding signal of 0.432 enrichment R.

Take B20: the binding signal was 1.38 enrichment R.

In turn, B21 displayed a binding signal of 0.327 enrichment R.

B22: the binding signal amounted to 0.385 enrichment R.

Values taken from PMC12136788.
